According to PMC4336329 (PLoS ONE, 2015):
Out of some 310,000 compounds screened, about 14,000 (4.5%) showed an effect of 50% or more. Effects have a minus sign here. The list shows a part of the results.
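Also: peak tail current of the secondary pulse compared with the same well before compound.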

What follows are compounds tested against human ether-à-go-go-related gene (hERG) potassium channel (human, UniProt Q12809) (assay: primary screen, population patch clamp on CHO cells stably expressing hERG).
Sequence of human ether-à-go-go-related gene (hERG) potassium channel (Q12809 whole entry, looked up): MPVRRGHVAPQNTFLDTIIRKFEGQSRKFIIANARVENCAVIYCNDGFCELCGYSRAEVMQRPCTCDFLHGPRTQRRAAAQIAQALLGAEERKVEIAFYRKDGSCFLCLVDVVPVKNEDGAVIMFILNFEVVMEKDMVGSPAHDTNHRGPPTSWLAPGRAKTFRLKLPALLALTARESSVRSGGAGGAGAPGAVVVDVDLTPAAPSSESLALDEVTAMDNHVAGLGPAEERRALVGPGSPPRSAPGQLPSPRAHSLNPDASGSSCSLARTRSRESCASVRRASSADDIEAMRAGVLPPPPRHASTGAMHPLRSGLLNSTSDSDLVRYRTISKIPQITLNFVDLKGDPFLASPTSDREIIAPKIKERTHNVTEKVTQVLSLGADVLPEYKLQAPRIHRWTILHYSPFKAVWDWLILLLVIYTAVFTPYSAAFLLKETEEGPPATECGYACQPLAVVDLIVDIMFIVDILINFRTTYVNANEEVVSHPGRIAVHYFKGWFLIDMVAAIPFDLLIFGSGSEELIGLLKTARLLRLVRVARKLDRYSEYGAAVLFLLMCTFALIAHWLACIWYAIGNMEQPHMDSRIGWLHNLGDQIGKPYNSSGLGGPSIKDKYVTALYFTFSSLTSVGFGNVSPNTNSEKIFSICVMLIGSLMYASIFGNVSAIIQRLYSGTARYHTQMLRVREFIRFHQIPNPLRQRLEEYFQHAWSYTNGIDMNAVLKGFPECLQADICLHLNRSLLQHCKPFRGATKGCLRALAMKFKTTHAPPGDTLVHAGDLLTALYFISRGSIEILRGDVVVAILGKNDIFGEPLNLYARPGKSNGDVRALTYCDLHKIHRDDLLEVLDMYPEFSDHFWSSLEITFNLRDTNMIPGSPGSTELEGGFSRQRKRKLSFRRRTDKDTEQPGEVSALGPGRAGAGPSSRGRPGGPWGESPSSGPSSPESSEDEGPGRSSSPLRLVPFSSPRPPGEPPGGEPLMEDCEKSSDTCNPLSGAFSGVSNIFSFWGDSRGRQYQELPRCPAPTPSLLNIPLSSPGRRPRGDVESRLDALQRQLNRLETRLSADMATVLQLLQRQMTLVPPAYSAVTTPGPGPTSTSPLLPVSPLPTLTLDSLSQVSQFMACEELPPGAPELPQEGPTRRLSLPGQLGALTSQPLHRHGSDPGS
With `CCC(=NC(CC)CO)C1=C(O)CC(C)(C)CC1=O` (centres unmarked) the “hERG current change (%, negative = inhibition) at 10uM” value was -1.12%. `Fc1ccc(Nc2ncnc3sc4c(c23)CCC4)cc1F` was tested, and the “hERG current change (%, negative = inhibition) at 10uM” value was -7.96%. `O=C(c1ccc(O)cc1)c1ccc(O)cc1O` was tested, and the “hERG current change (%, negative = inhibition) at 10uM” value was -18.6%. `CCS(=O)(=O)N1CCC(C(=O)NCc2ccc(OC)cc2)CC1` was tested, and the “hERG current change (%, negative = inhibition) at 10uM” value was -5.4%. With `COCCn1c(=S)[nH]c2cc(C(=O)N3CCC(C(N)=O)(N4CCCCC4)CC3)ccc2c1=O` the “hERG current change (%, negative = inhibition) at 10uM” value was 2.37%. In the case of `CC(C)(C)CC(C)(C)NC(=S)Nc1ccc2nc(-c3ccccn3)c(-c3ccccn3)nc2c1`, the “hERG current change (%, negative = inhibition) at 10uM” value is reported as -8.68%. For `Cc1cc(C(=O)Nc2ccc(C)c(C)c2)n(-c2ccccc2)n1`, the “hERG current change (%, negative = inhibition) at 10uM” value was -5.82%. `Nc1ncnc(NC2CCS(=O)(=O)C2)c1[N+](=O)[O-]` (centres unmarked) was tested, and the “hERG current change (%, negative = inhibition) at 10uM” value was 8.13%. For `Cc1coc2c(C)c3oc(=O)c4c(c3cc12)CCCC4`, the “hERG current change (%, negative = inhibition) at 10uM” value was 9.91%. `CN1CCCN(Cc2ccc(Cl)cc2Cl)CC1` was tested, and the “hERG current change (%, negative = inhibition) at 10uM” value was -39%. `Cc1ccccc1NC(=O)NNC(=O)c1ccc2ccccc2c1` was tested, and the “hERG current change (%, negative = inhibition) at 10uM” value was 11.7%. In the case of `COC(=O)c1ccc(Sc2ccccc2NS(=O)(=O)c2ccc(OC)cc2)nc1`, the “hERG current change (%, negative = inhibition) at 10uM” value is reported as 9.67%. For `COc1ccc(-c2cnc3nc(/N=C/N(C)C)nn3c2/N=C/N(C)C)cc1`, the “hERG current change (%, negative = inhibition) at 10uM” value was 9.65%. `O=C(O)c1ccc(N2C(=O)CC(SC(=NCc3ccc4c(c3)OCO4)Nc3ccc(F)cc3)C2=O)cc1` (centres unmarked) was tested, and the “hERG current change (%, negative = inhibition) at 10uM” value was 25.7%. With `COc1ccc2nc(COC(=O)c3cccs3)c(C(C)=O)[n+]([O-])c2c1` the “hERG current change (%, negative = inhibition) at 10uM” value was 13.2%. With `COc1cccc(S(=O)(=O)NCc2ccc(C(=O)Nc3ccc(Cl)cc3)cc2)c1` the “hERG current change (%, negative = inhibition) at 10uM” value was -3.12%. For `Cc1c(OCC(=O)NCc2cccnc2)ccc2c3c(c(=O)oc12)CCCC3`, the “hERG current change (%, negative = inhibition) at 10uM” value was 5.81%. For `CC(=O)c1ccc(N2CCN(CC(O)c3ccccc3)CC2)cc1` (centres unmarked), the “hERG current change (%, negative = inhibition) at 10uM” value was -11.6%. In the case of `Cc1ccc(OCC(=O)Nc2ccc(C(=O)O)cc2NC(=O)COc2ccc(C)c(C)c2)cc1C`, the “hERG current change (%, negative = inhibition) at 10uM” value is reported as 6.5%. For `Cc1ccc(NC(=O)CN(C)C(=O)C(Sc2ccccc2)c2ccccc2)cc1` (centres unmarked), the “hERG current change (%, negative = inhibition) at 10uM” value was 2.05%. With `O=C(COC(=O)CCc1nc2ccccc2n1-c1ccccc1)Nc1ccc(N2CCCCC2)cc1` the “hERG current change (%, negative = inhibition) at 10uM” value was 2.85%. In the case of `COC(=O)c1ccc(CNC(=O)COC(=O)C23CC4CC(CC(C4)C2)C3)cc1`, the “hERG current change (%, negative = inhibition) at 10uM” value is reported as 0.0278%. For `Nc1nc(NCCO)nc(NCC2CCCO2)c1[N+](=O)[O-]` (centres unmarked), the “hERG current change (%, negative = inhibition) at 10uM” value was 9.69%. In the case of `CCc1nnc(NC(=O)CN2CCN(Cc3cccc(OC)c3)CC2)s1`, the “hERG current change (%, negative = inhibition) at 10uM” value is reported as -19%. `O=C(NC(=S)Nc1ccc(C(=O)N2CCOCC2)cc1)c1ccc([N+](=O)[O-])cc1` was tested, and the “hERG current change (%, negative = inhibition) at 10uM” value was 17.4%. For `CCN(CC)c1ccc(C(=O)OCC(=O)Nc2cc3oc4ccccc4c3cc2OC)cc1`, the “hERG current change (%, negative = inhibition) at 10uM” value was 11.1%. With `O=C(COC(=O)CCc1ccc(S(=O)(=O)N2CCOCC2)cc1)NC1CCCCCC1` the “hERG current change (%, negative = inhibition) at 10uM” value was -10.8%. With `CC#CC(=O)N1CCCC(Cc2cccc(OC)c2)(C(=O)OCC)C1` (centres unmarked) the “hERG current change (%, negative = inhibition) at 10uM” value was 16.6%. With `CCC(C)NC(=O)Cn1cccc1C(=O)c1ccccc1` (centres unmarked) the “hERG current change (%, negative = inhibition) at 10uM” value was -2.44%. `COc1cccc(C2c3c(oc4ccc(Cl)cc4c3=O)C(=O)N2c2cc(C)on2)c1OC` (centres unmarked) was tested, and the “hERG current change (%, negative = inhibition) at 10uM” value was 5.9%. `Cc1csc(NC(=O)c2ccc(Cn3nc(C)c(Br)c3C)o2)n1` was tested, and the “hERG current change (%, negative = inhibition) at 10uM” value was -27.3%. `CN1CCN(CCCC(=O)c2ccc(F)cc2)CC1.Cl` was tested, and the “hERG current change (%, negative = inhibition) at 10uM” value was -14.5%. `CN(C)CCn1c(=O)n(-c2ccc(F)cc2)c(=O)c2c3c(sc21)CCCCC3` was tested, and the “hERG current change (%, negative = inhibition) at 10uM” value was -18.6%. `Nc1nc(CN2CCN(Cc3ccccc3)CC2)nc(Nc2ccc3c(c2)OCCO3)n1` was tested, and the “hERG current change (%, negative = inhibition) at 10uM” value was -74.8%. For `Cc1nn(Cc2ccc([N+](=O)[O-])cc2)c(=O)n1-c1cccc(F)c1`, the “hERG current change (%, negative = inhibition) at 10uM” value was 1.7%. In the case of `CCn1ccnc1CNC(=O)CC1C(=O)NCCN1Cc1ccc(OC)cc1OC` (centres unmarked), the “hERG current change (%, negative = inhibition) at 10uM” value is reported as -18%. With `CCOc1ccc2oc(C(=O)OCC(=O)NC3CCCCC3)c(C)c2c1` the “hERG current change (%, negative = inhibition) at 10uM” value was -14.5%. For `O=C(NCCN1CCN(c2ccccc2)CC1)c1cccn2c(=O)c3ccccc3nc12`, the “hERG current change (%, negative = inhibition) at 10uM” value was -63%. In the case of `NC(=O)c1ccccc1NC(=O)c1ccccc1F`, the “hERG current change (%, negative = inhibition) at 10uM” value is reported as 10.3%. For `O=C(Nc1nc2ccccc2[nH]1)c1cccc([N+](=O)[O-])c1`, the “hERG current change (%, negative = inhibition) at 10uM” value was 6.51%. With `CCOCCCNC(=O)Cc1c(C(=O)O)[nH]c2ccc(Cl)cc12` the “hERG current change (%, negative = inhibition) at 10uM” value was 1.32%. In the case of `CCNc1oc(-c2cccc3ccccc23)nc1C#N`, the “hERG current change (%, negative = inhibition) at 10uM” value is reported as 15.7%. In the case of `COc1ccc(-c2cc(C(F)F)n3ncc(C(=O)Nc4cccc(S(=O)(=O)N5CCOCC5)c4)c3n2)cc1`, the “hERG current change (%, negative = inhibition) at 10uM” value is reported as 12.1%. For `COc1cc2c(cc1OC)C(=S)NC(C)(C)C2`, the “hERG current change (%, negative = inhibition) at 10uM” value was 17.2%. With `COc1ccc(C(=O)NC2CC2)cc1OC1CCN(C/C=C/c2ccccc2)CC1` the “hERG current change (%, negative = inhibition) at 10uM” value was -79.9%. For `CCOC(=O)C(C)CC(C)C(=O)N1CCOCCOCCN(C(=O)C(C)CC(C)C(=O)OCC)CCOCC1` (centres unmarked), the “hERG current change (%, negative = inhibition) at 10uM” value was 10.6%. `CC(=O)Nc1ccc(C(=O)OCC(=O)N2CCN(C(=O)c3ccco3)CC2)cc1` was tested, and the “hERG current change (%, negative = inhibition) at 10uM” value was 2.69%. `COCCn1c(SCC(=O)N2CCOCC2)nnc1-c1ccncc1` was tested, and the “hERG current change (%, negative = inhibition) at 10uM” value was -7.01%. `COc1ccccc1NC(=O)CSc1nnc(-c2ccncc2)n1CC1CCCO1` (centres unmarked) was tested, and the “hERG current change (%, negative = inhibition) at 10uM” value was -8.46%. `Cc1ccc(S(=O)(=O)N2CCN(C(=O)CCn3cncn3)CC2)cc1` was tested, and the “hERG current change (%, negative = inhibition) at 10uM” value was -2.43%. For `C/C(=C\C(=O)C(F)(F)F)Nc1ccc(C)cc1`, the “hERG current change (%, negative = inhibition) at 10uM” value was 7%. With `O=C(Cn1cnc([N+](=O)[O-])n1)NC1CC1` the “hERG current change (%, negative = inhibition) at 10uM” value was 7.02%. With `CNc1nnc(-c2cc3cc(Cl)ccc3oc2=O)s1` the “hERG current change (%, negative = inhibition) at 10uM” value was -6.28%. In the case of `c1ccc(-c2cn3c(n2)CCc2ccc4cccnc4c2-3)cc1`, the “hERG current change (%, negative = inhibition) at 10uM” value is reported as -3.14%. For `O=C(CSc1nnc(-c2c[nH]c3ccccc23)o1)NCC1CCCO1` (centres unmarked), the “hERG current change (%, negative = inhibition) at 10uM” value was 11.7%. In the case of `COC(=O)c1c(NC(=O)c2ccco2)sc2c1CCC2`, the “hERG current change (%, negative = inhibition) at 10uM” value is reported as 19.3%.
